Experimental data published in publication PMC6602471.
The list shows a part of the results. At the low end of the ranking the order means little.

target: T1, ETS1 (UniProt P14921); assay: custom PBM; conditions: custom protein-binding microarray; buffer, salt, pH and temperature not stated; high values mean tight binding; double strand, one strand shown
T1 sequence: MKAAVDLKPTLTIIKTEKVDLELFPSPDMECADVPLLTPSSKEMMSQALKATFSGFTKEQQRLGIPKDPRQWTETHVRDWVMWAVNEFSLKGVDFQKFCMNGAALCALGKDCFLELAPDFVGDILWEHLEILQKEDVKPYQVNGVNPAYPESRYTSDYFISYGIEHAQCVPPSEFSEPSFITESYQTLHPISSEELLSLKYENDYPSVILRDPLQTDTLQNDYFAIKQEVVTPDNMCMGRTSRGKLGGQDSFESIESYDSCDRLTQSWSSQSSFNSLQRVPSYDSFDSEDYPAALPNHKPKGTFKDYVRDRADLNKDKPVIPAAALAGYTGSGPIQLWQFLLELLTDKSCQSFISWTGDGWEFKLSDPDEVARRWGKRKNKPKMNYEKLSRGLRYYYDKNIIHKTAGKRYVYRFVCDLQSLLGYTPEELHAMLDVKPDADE

Sequence | binding signal (log fluorescence intensity)
CACAATTTTTACAGTAATGTTGCACGCGTAACTCCTGTCTTGATTCGCTTGACGCTGCTG | 8.18
TAAAGGGAAGACGGTTGTGGGAGTTCCGGGTATTAAGTCTTGATTCGCTTGACGCTGCTG | 8.37
GGGTATAGGATCCCATCCAACACACGTGTTAAAATGGTCTTGATTCGCTTGACGCTGCTG | 8.44
GGAAAAAGGCCCAGGGTAACACCGGAAGAGGGCTTAGTCTTGATTCGCTTGACGCTGCTG | 9.85
TGTCGGGTAAGGGAAGGTAGATCACGTGAATGAAAAGTCTTGATTCGCTTGACGCTGCTG | 8.2
TGCCGGGTAAGGGAATGTAGATCACGTGAATGAAAAGTCTTGATTCGCTTGACGCTGCTG | 8.06
GTGTATAGGTTCCCATCCAACACACGTGTTAAAATGGTCTTGATTCGCTTGACGCTGCTG | 8.15
TATAGGGAAGACGGTTGTGGTAGTTCCGGGTATTAAGTCTTGATTCGCTTGACGCTGCTG | 8.48
GATTACTTTCTGCCCTTATTCGCACGTGCCATAACAGTCTTGATTCGCTTGACGCTGCTG | 8.18
GGAAAAAGGCCCAGGGTAACACCGGAAGTGGGGTTAGTCTTGATTCGCTTGACGCTGCTG | 12
TAAAGGGAAGACGGTTGTGGTAGTCCCGGGTATTAAGTCTTGATTCGCTTGACGCTGCTG | 8.14
GGAAAAAGGCCCAGGGGAACACCGGAAGTGGGCTTAGTCTTGATTCGCTTGACGCTGCTG | 12.1
GGAAAAAAGCCCAGGGTAACACCGGAAGTGGGCTTAGTCTTGATTCGCTTGACGCTGCTG | 12.1
CACATTTTTTACAGTAATGTAGCACGCGTAACTCCTGTCTTGATTCGCTTGACGCTGCTG | 8.09
GTGTATAGGATCCCATCCAAGACACGTGTTAAAATGGTCTTGATTCGCTTGACGCTGCTG | 8.2
CACAATTTGTACAGTAATGTAGCACGCGTAACTCCTGTCTTGATTCGCTTGACGCTGCTG | 8.19
GTGTATAGGATCCCATCCAACACACGTGTTAAAGTGGTCTTGATTCGCTTGACGCTGCTG | 8.22
TAAAGGGAAGACGGTTGTGGTAGCTCCGGGTATTAAGTCTTGATTCGCTTGACGCTGCTG | 8.28
TACTGACTTATATATGTGAATGCACATGAATAGACCGTCTTGATTCGCTTGACGCTGCTG | 8.27
CGGAAGTGTCGTATACGTCGGATATCCGGTTCTTCTGTCTTGATTCGCTTGACGCTGCTG | 11.6

Sequence | binding signal (log fluorescence intensity)
GCTGCTGCGGTGCATACCCCACCGGATGTGACCTCGGTCTTGATTCGCTTGACGCTGCTG | 9.97
CTGGGACTTGACCCCACTCTGCCACGTGGGTCGTTTGTCTTGATTCGCTTGACGCTGCTG | 8.14
CCGAAGTGTCGTAAACGTCGGATATCCGGTTCTTCTGTCTTGATTCGCTTGACGCTGCTG | 12
CGGAAGTGTCGTAAACGTCGGATATCCGGTTCCTCTGTCTTGATTCGCTTGACGCTGCTG | 12
TCTGGCTACCAGCTCCACCCACTTCAGGCCTTGTAGGTCTTGATTCGCTTGACGCTGCTG | 8.26
CAGCATAGGACTTCTTCCCTGCAGCAATTGATAACCGTCTTGATTCGCTTGACGCTGCTG | 8.25
GATTAATTTCTGCCCTTACTCGCACGTGCCATAACAGTCTTGATTCGCTTGACGCTGCTG | 8.27
TAAAGGGAAGACGGTTGTGGTAGTTCCTGGTATTAAGTCTTGATTCGCTTGACGCTGCTG | 8.29
GCTGCTGCGGTGCATCCCCCACCGGATGTGACCCCGGTCTTGATTCGCTTGACGCTGCTG | 10.8
TAAAGTGAAGACGGTTGTGGTAGTTCCGGGTATTAAGTCTTGATTCGCTTGACGCTGCTG | 8.37
TGTCGGGTAAGGGAATGTAGATCACGTGAATGAAACGTCTTGATTCGCTTGACGCTGCTG | 8.41
CACAATTTTTACAGTAATGTAACACGCGTAACTCCTGTCTTGATTCGCTTGACGCTGCTG | 8.37
TGTCGGGTAAGGTAATGTAGATCACGTGAATGAAAAGTCTTGATTCGCTTGACGCTGCTG | 8.26
TGTCGGGTAAGGGAATGTAGATCACTTGAATGAAAAGTCTTGATTCGCTTGACGCTGCTG | 8.32
CTGGGACTTGACCCACCTCTGCCACGTGGGTCGTTTGTCTTGATTCGCTTGACGCTGCTG | 8.09
GATTAGTTTCTGCCCTTATTCGCACGTGCCATAACAGTCTTGATTCGCTTGACGCTGCTG | 8.12
CGGAAGTGTCGTAAACGTCGGATATCCGGTTCTTCAGTCTTGATTCGCTTGACGCTGCTG | 12
TAAAAGGAAGACGGTTGTGGTAGTTCCGGGTATTAAGTCTTGATTCGCTTGACGCTGCTG | 8.73
CTGGGACTTGACCCAACTCTGCCACGAGGGTCGTTTGTCTTGATTCGCTTGACGCTGCTG | 8.16
TAAAGGGAAGACGGTTGCGGTAGTTCCGGGTATTAAGTCTTGATTCGCTTGACGCTGCTG | 8.58
